# This is one part of the list.
# B1: BDCA-2 (Homo sapiens), Q8WTT0 (protein)
# chain: MVPEEEPQDREKGLWWFQLKVWSMAVVSILLLSVCFTVSSVVPHNFMYSKTVKRLSKLREYQQYHPSLTCVMEGKDIEDWSCCPTPWTSFQSSCYFISTGMQSWTKSQKNCSVMGADLVVINTREEQDFIIQNLKRNSSYFLGLSDPGGRRHWQWVDQTPYNENVTFWHSGEPNNLDERCAIINFRSSEEWGWNDIHCHVPQKSICKMKKIYI
# Experiments:
# Assay in all cases: glycan array binding signal (z-score within array); higher = stronger binding
# Conditions in all cases: glycan notation: IUPAC condensed, linker removed
# [1] = target: Gal(b1-4)GlcNAc(b1-2)Man(a1-3)[Gal(b1-4)GlcNAc(b1-2)Man(a1-6)][GlcNAc(b1-4)]Man(b1-4)GlcNAc(b1-4)[Fuc(a1-6)]GlcNAc
# Procedure, shortened: (§1)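 Glycan array data came from 3228 arrays in the Consortium for Functional Glycomics database, and only arrays with an available protein sequence were kept. Glycan names were put into IUPAC-condensed notation, and columns mapping to the same glycan were averaged. The binding signal is a within-array Z-score, averaged across arrays of one protein sequence run at different concentrations or buffers and across linkers. A negative Z-score can be read as non-binding.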
# [2] = target: Gal(b1-4)GlcNAc(b1-2)Man(a1-3)[GlcNAc(b1-2)Man(a1-6)]Man(b1-4)GlcNAc(b1-4)GlcNAc
# Procedure, shortened: as §1
# [3] = target: Gal(b1-4)GlcNAc(b1-2)Man(a1-3)[GlcNAc(b1-4)][Gal(b1-4)GlcNAc(b1-2)Man(a1-6)]Man(b1-4)GlcNAc(b1-4)GlcNAc
# Procedure, shortened: as §1
# [4] = target: Gal(b1-4)GlcNAc(b1-2)Man(a1-3)[Man(a1-6)]Man(b1-4)GlcNAc(b1-4)GlcNAc
# Procedure, shortened: as §1
# [5] = target: Gal(b1-4)GlcNAc(b1-2)Man(a1-6)Man(b1-4)GlcNAc(b1-4)GlcNAc
# Procedure, shortened: as §1
# [6] = target: Gal(b1-4)GlcNAc(b1-2)Man(a1-6)[GlcNAc(b1-2)Man(a1-3)]Man(b1-4)GlcNAc(b1-4)GlcNAc
# Procedure, shortened: as §1
# [7] = target: Gal(b1-4)GlcNAc(b1-2)Man(a1-6)[Man(a1-3)]Man(b1-4)GlcNAc(b1-4)GlcNAc
# Procedure, shortened: as §1
# [8] = target: Gal(b1-4)GlcNAc(b1-2)[Gal(b1-4)GlcNAc(b1-4)]Man(a1-3)[Gal(b1-4)GlcNAc(b1-2)Man(a1-6)]Man(b1-4)GlcNAc(b1-4)GlcNAc
# Procedure, shortened: as §1
# [9] = target: Gal(b1-4)GlcNAc(b1-2)[Gal(b1-4)GlcNAc(b1-4)]Man(a1-3)[Gal(b1-4)GlcNAc(b1-2)[Gal(b1-4)GlcNAc(b1-6)]Man(a1-6)]Man(b1-4)GlcNAc(b1-4)GlcNAc
# Procedure, shortened: as §1
# [10] = target: Gal(b1-4)GlcNAc(b1-2)[Gal(b1-4)GlcNAc(b1-4)]Man(a1-3)[GlcNAc(b1-4)][Gal(b1-4)GlcNAc(b1-2)Man(a1-6)]Man(b1-4)GlcNAc(b1-4)GlcNAc
# Procedure, shortened: as §1
# [11] = target: Gal(b1-4)GlcNAc(b1-2)[Gal(b1-4)GlcNAc(b1-4)]Man(a1-3)[GlcNAc(b1-4)][Gal(b1-4)GlcNAc(b1-2)[Gal(b1-4)GlcNAc(b1-6)]Man(a1-6)]Man(b1-4)GlcNAc(b1-4)GlcNAc
# Procedure, shortened: as §1
# [12] = target: Gal(b1-4)GlcNAc(b1-2)[Gal(b1-4)GlcNAc(b1-6)]Man(a1-6)[Gal(b1-4)GlcNAc(b1-2)Man(a1-3)]Man(b1-4)GlcNAc(b1-4)GlcNAc
# Procedure, shortened: as §1
# [13] = target: Gal(b1-4)GlcNAc(b1-2)[Gal(b1-4)GlcNAc(b1-6)]Man(a1-6)[Gal(b1-4)GlcNAc(b1-2)Man(a1-3)]Man(b1-4)GlcNAc(b1-4)[Fuc(a1-6)]GlcNAc
# Procedure, shortened: as §1
# [14] = target: Gal(b1-4)GlcNAc(b1-2)[Gal(b1-4)GlcNAc(b1-6)]Man(a1-6)[GlcNAc(b1-4)][Gal(b1-4)GlcNAc(b1-2)Man(a1-3)]Man(b1-4)GlcNAc(b1-4)GlcNAc
# Procedure, shortened: as §1
# [15] = target: Gal(b1-4)GlcNAc(b1-2)[Gal(b1-4)GlcNAc(b1-6)]Man(a1-6)[GlcNAc(b1-4)][Gal(b1-4)GlcNAc(b1-2)[Gal(b1-4)GlcNAc(b1-4)]Man(a1-3)]Man(b1-4)GlcNAc(b1-4)[Fuc(a1-6)]GlcNAc
# Procedure, shortened: as §1
# [16] = target: Gal(b1-4)GlcNAc(b1-3)Gal(b1-3)GalNAc
# Procedure, shortened: as §1
# [17] = target: Gal(b1-4)GlcNAc(b1-3)Gal(b1-3)GlcNAc
# Procedure, shortened: as §1
# [18] = target: Gal(b1-4)GlcNAc(b1-3)Gal(b1-4)Glc
# Procedure, shortened: as §1
# [19] = target: Gal(b1-4)GlcNAc(b1-3)Gal(b1-4)GlcNAc
# Procedure, shortened: as §1
# [20] = target: Gal(b1-4)GlcNAc(b1-3)Gal(b1-4)GlcNAc(b1-2)Man(a1-3)[Gal(b1-4)GlcNAc(b1-3)Gal(b1-4)GlcNAc(b1-2)Man(a1-6)]Man(b1-4)GlcNAc(b1-4)GlcNAc
# Procedure, shortened: as §1
# [21] = target: Gal(b1-4)GlcNAc(b1-3)Gal(b1-4)GlcNAc(b1-2)Man(a1-3)[Gal(b1-4)GlcNAc(b1-3)Gal(b1-4)GlcNAc(b1-2)Man(a1-6)]Man(b1-4)GlcNAc(b1-4)[Fuc(a1-6)]GlcNAc
# Procedure, shortened: as §1
# [22] = target: Gal(b1-4)GlcNAc(b1-3)Gal(b1-4)GlcNAc(b1-2)[Gal(b1-4)GlcNAc(b1-3)Gal(b1-4)GlcNAc(b1-6)]Man(a1-6)[Gal(b1-4)GlcNAc(b1-3)Gal(b1-4)GlcNAc(b1-2)Man(a1-3)]Man(b1-4)GlcNAc(b1-4)GlcNAc
# Procedure, shortened: as §1
binder,measurement,setting,value
B1,glycan array binding signal (z-score),[1],3.96
same,glycan array binding signal (z-score),[2],6.87
same,glycan array binding signal (z-score),[3],0.554
same,glycan array binding signal (z-score),[4],3.54
same,glycan array binding signal (z-score),[5],0.917
same,glycan array binding signal (z-score),[6],3.33
same,glycan array binding signal (z-score),[7],0.84
same,glycan array binding signal (z-score),[8],0.325
same,glycan array binding signal (z-score),[9],0.254
same,glycan array binding signal (z-score),[10],-0.113
same,glycan array binding signal (z-score),[11],-0.146
same,glycan array binding signal (z-score),[12],6.95
same,glycan array binding signal (z-score),[13],8.21
same,glycan array binding signal (z-score),[14],0.409
same,glycan array binding signal (z-score),[15],-0.068
same,glycan array binding signal (z-score),[16],-0.166
same,glycan array binding signal (z-score),[17],-0.179
same,glycan array binding signal (z-score),[18],-0.205
same,glycan array binding signal (z-score),[19],0.031
same,glycan array binding signal (z-score),[20],-0.062
same,glycan array binding signal (z-score),[21],-0.127
same,glycan array binding signal (z-score),[22],-0.145

# Reference: the supplement of paper PMC8728848
